# From patent US20240216428A1
# Target: CD5 (UniProt P06127)
# Assay: cell-based or functional assay
# Chain of UniProt P06127 (P06127 25-495 limits assumed): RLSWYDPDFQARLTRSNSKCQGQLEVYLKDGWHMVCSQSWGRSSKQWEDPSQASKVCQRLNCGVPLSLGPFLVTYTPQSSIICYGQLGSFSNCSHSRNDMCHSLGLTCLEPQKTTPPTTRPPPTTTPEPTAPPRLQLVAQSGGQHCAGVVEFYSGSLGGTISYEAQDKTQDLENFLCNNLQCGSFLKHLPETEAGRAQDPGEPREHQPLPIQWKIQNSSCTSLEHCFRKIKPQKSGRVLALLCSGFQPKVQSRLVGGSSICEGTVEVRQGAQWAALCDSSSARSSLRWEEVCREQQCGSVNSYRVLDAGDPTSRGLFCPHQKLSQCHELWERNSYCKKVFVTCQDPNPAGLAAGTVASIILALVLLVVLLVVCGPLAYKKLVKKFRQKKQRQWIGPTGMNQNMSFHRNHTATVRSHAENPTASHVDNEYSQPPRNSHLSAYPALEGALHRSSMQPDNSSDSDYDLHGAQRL
binder,measurement,value
"CD5#11-CAR (chimeric antigen receptor with anti-CD5 scFv #11 as antigen-binding site) (protein, part only; not given: CD28, CD3-zeta and DAP10 signaling parts, not shown: small tags and cut ends) chain, part: [letters of about 100 residues omitted]RSYAGEYFDHWGQGTLVTVSSGGGGSGGGGSGGGGSDIQMTQSPSSLSASVGDRVTITCRASQSISNWLNWYQQKPGKAPKLLIYDASSLQSGVPSRFSGSGSGTDFTLTISSLQPEDFATYYCQQSYSFPWTFGQGTKVEIKASTGPGGQHHHHHHGAWSHPQFEK","cytotoxicity against cancer cells expressing CD5, fold over the control group (single cell lines) (times higher than the control group)",10
same,"cytotoxicity against normal cells expressing CD5, fold over the control group (single cell lines) (times higher than the control group)",2
